± gives the standard deviation of the averaged measurements. In all, about 33,000 sequences were measured (“E-score (dimensionless, -0.5 to 0.5)”: median about -0.046, highest 2% from about 0.36 on). The list shows a part of the results.
Test system: T1, SpTbr T-box DNA-binding domain (GST fusion)
T1 sequence: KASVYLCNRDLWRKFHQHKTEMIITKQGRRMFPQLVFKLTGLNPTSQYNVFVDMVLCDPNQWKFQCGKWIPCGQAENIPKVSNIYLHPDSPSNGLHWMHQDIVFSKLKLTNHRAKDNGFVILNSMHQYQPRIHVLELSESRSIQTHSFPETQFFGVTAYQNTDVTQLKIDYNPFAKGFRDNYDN
Experiment: PBM E-score of 8-mer (E-score (dimensionless, -0.5 to 0.5)); Tbr is Tbrain of the sea star Patiria miniata (Pm) or the sea urchin Strongylocentrotus purpuratus (Sp); higher = stronger binding preference; most listed sequences are background and not binding sites
Conditions: the construct has about 5 more residues each side
Method in brief: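 GST-fused Tbr T-box DNA-binding domains (the whole T-box plus about five flanking residues) were expressed in BL21 E. coli at 20 °C and purified by glutathione affinity chromatography. Universal Agilent oligonucleotide arrays were made double-stranded by primer extension, incubated with 200 nM protein in PBS (pH 7.5), then scanned and quantified. Every ungapped 8-mer was scored from probe intensities. The Universal PBM Analysis Suite gave each word an enrichment E-score, averaged over duplicate arrays.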

Sequence	PBM E-score of 8-mer
CGTAACGA	-0.183 ± 0.031
CGTTCGCA	0.411 ± 0.0075
CCGGGTAG	-0.056 ± 0.068
ACTGCGGC	0.0509 ± 0.003
GCTGGGAA	0.0702 ± 0.046
ATCTCTCA	0.171 ± 0.012
TAAGTGTA	0.143 ± 0.093
CCTTTATC	-0.00086 ± 0.15
CTCCCAGC	0.07894 ± 7.1e-05
TAAGGATA	-0.0903 ± 0.053
ATTATTCA	-0.246 ± 0.073
CATTTTGA	-0.216 ± 0.051
CGACCCCG	-0.0732 ± 0.01
CGCTTAAA	0.0934 ± 0.032
AGACTACG	-0.303 ± 0.026
GAGGCTCA	-0.129 ± 0.025
GCATACAC	0.0478 ± 0.089
AAATATAG	-0.0849 ± 0.002
CAGTGTAC	-0.0521 ± 0.026
TAACAATA	0.1776 ± 0.0016
CACAACTA	0.2177 ± 0.00043
ATGGTTGA	0.0176 ± 0.022
ACGGCCAC	0.036 ± 0.0052
CGCGTGGC	0.143 ± 0.068
AATTCAGG	-0.189 ± 0.017

Sequence	PBM E-score of 8-mer
CTCACAAA	0.00513 ± 0.071
AATCAATG	0.0077 ± 0.038
GGTGCTAA	0.4658 ± 0.00059
GTGTGAGA	0.4699 ± 0.0024
AATCTACG	-0.0969 ± 0.03
AATGTTAG	-0.14 ± 0.049
CACAAGCG	0.12 ± 0.021
GCTCCTGA	-0.172 ± 0.096
GAGAGAAC	0.109 ± 0.073
ACTGGAAT	-0.231 ± 0.01
CGCAGGGC	0.11 ± 0.021
CGGTTGCC	-0.0673 ± 0.047
CGGAATAG	-0.28 ± 0.039
TATCTTCA	0.0176 ± 0.064
TCAAATAA	-0.00673 ± 0.035
ATTTCTCA	0.0557 ± 0.057
ATGGGTTC	-0.166 ± 0.048
AGGGTATA	0.0465 ± 0.026
ACTGTAGA	0.0389 ± 0.042
CGGGGTAC	0.0318 ± 0.03
CAGGTCGC	0.225 ± 0.038
CAGCGTAC	-0.168 ± 0.039
CTCCTTTC	-0.154 ± 0.023
AAGCTTTA	-0.199 ± 0.049
GACCCAAC	-0.145 ± 0.029

Sequence	PBM E-score of 8-mer
CCAAGGCA	-0.112 ± 0.0028
ACCGTGTC	0.107 ± 0.0065
ACACTTCC	0.417 ± 0.016
AATGTCGC	0.162 ± 0.004
GGGTCGAC	-0.131 ± 0.036
CTCCGGCA	0.0686 ± 0.041
GGTCGCAA	0.208 ± 0.029
ATCACTTG	0.169 ± 0.064
GCGGGGGA	-0.0377 ± 0.042
CCATCACC	0.214 ± 0.011
ATATAGGA	-0.218 ± 0.035
GCCTATCA	0.134 ± 0.052
ATGTGATC	0.1517 ± 0.00082
CGTATAAA	-0.0902 ± 0.0068
GCGGTGAC	0.136 ± 0.084
TAAGGCCA	-0.136 ± 0.023
CTACGCGC	0.197 ± 0.055
GCGATTGA	0.129 ± 0.023
ACAGTTCT	0.109 ± 0.037
CGAGCAAG	-0.0831 ± 0.035
TCTGCGAA	0.202 ± 0.04
ACGTGTCA	0.458 ± 0.0068
ACTCAGTA	0.0241 ± 0.0054
GACTCAGC	-0.134 ± 0.014
CCACAAGC	-0.00571 ± 0.011

Sequence	PBM E-score of 8-mer
CAACGCCG	0.124 ± 0.066
CCGTGTAA	0.176 ± 0.034
CTACTCAA	-0.0464 ± 0.031
AAGGCACC	0.0848 ± 0.0052
GCGGGGCA	-0.0613 ± 0.16
CAGCTTTC	0.113 ± 0.051
AACAGAAG	-0.19 ± 0.051
GCATCTAC	-0.113 ± 0.052
CTGCTCTC	-0.124 ± 0.03
GACGACCC	0.00875 ± 0.042
CGCCGTAC	-0.192 ± 0.081
ACTCCGAG	-0.135 ± 0.021
ACCTCGGG	-0.0119 ± 0.054
GAGGGTAA	-0.217 ± 0.039
ACTCAATG	-0.0504 ± 0.02
GTTTTATA	-0.234 ± 0.094
ACGATTCT	-0.0459 ± 0.089
ACAAAACC	-0.0407 ± 0.031
GACAGATC	0.0373 ± 0.0047
AACTCCCT	-0.203 ± 0.064
CATTTATC	-0.0576 ± 0.052
AAGCGGAG	-0.184 ± 0.048
CTCCGTAA	-0.0525 ± 0.031
CGCGACAG	0.292 ± 0.037
CGCACAGA	-0.173 ± 0.052

Sequence	PBM E-score of 8-mer
CCCATCTC	-0.0682 ± 0.07
AATGTACC	-0.134 ± 0.014
TGAACTAA	0.00895 ± 0.033
CTCGAGAG	-0.0479 ± 0.0086
GGATAACC	0.0395 ± 0.035
AAGTTATC	0.0893 ± 0.0073
CCTACTCA	0.165 ± 0.084
CGTTTCCC	0.0811 ± 0.074
GTAGGAGA	-0.248 ± 0.032
AAAGACAG	-0.197 ± 0.0058
CCCAGTAG	-0.0339 ± 0.064
GGCATAAA	-0.0744 ± 0.027
GACCTGAC	0.0333 ± 0.08
ACAGTGAA	0.151 ± 0.018
AGAGGGCG	0.05 ± 0.019
GAGGCCCA	-0.307 ± 0.041
AGCCCCTA	-0.0793 ± 0.026
GAGATCGC	0.266 ± 0.024
ACGGTGAG	0.0305 ± 0.02
CATCCTGA	-0.0422 ± 0.062
CCATGGTA	-0.121 ± 0.015
CCCCCAAA	-0.3559 ± 0.0013
TACCGCAA	0.0292 ± 0.028
CCTCTGAG	0.0438 ± 0.017
ACACGTTG	0.348 ± 0.029

Sequence	PBM E-score of 8-mer
AGAAACGA	-0.122 ± 0.024
ATGCCCCG	-0.15 ± 0.0025
ACATCCCC	0.117 ± 0.027
CCTAAAGA	-0.0986 ± 0.067
GTAATCGA	0.0348 ± 0.0063
AGTGGCTA	-0.0285 ± 0.014
ACGAACAC	0.129 ± 0.011
TGGAAACA	-0.024 ± 0.027
GAGATTCA	-0.0564 ± 0.084
AGGCCTTA	-0.177 ± 0.084
TATTATCA	0.0502 ± 0.099
CAATGACG	0.17 ± 0.034
ATGTAAGC	-0.0318 ± 0.03
CATGCTTA	0.0696 ± 0.05
TCTAATCA	0.0383 ± 0.068
GGATTTTA	-0.176 ± 0.043
CTACGTAG	-0.173 ± 0.073
AAGCGTCT	0.0504 ± 0.032
AAATCCTG	-0.0611 ± 0.024
CACCGTAC	0.159 ± 0.03
ACTATCAA	0.0394 ± 0.032
CCAGCCGA	0.0686 ± 0.0022
CGGAACTC	-0.192 ± 0.057
ACAAGCGG	-0.0319 ± 0.046
AATAGACC	-0.2939 ± 0.0013

Sequence	PBM E-score of 8-mer
GATGTCAC	0.296 ± 0.023
ACCGTAAT	-0.152 ± 0.038
ATGAGAAC	-0.0381 ± 0.053
ATCATGAC	-0.131 ± 0.013
AAGATCTT	-0.108 ± 0.099
CTTTTTAA	-0.0492 ± 0.15
CGGCGTCA	0.223 ± 0.02
CTCTGCAG	-0.104 ± 0.035
CCCTTGAC	-0.0871 ± 0.043
CAACTATG	-0.0434 ± 0.046
CGATTTCA	0.04967 ± 0.00043
CAGGACTA	-0.191 ± 0.029
CTCGTTTA	-0.205 ± 0.12
CGTTTCCA	0.0866 ± 0.0024
CTAGGGCC	-0.325 ± 0.0048
CCGATCAC	0.198 ± 0.02
TAAACCGA	-0.151 ± 0.035
AGGGCCAT	-0.2 ± 0.047
GTTCGTCA	0.0923 ± 0.0096
AGCCCTGC	-0.123 ± 0.042
CGTGGGGA	-8e-05 ± 0.017
GCAGGTGA	0.414 ± 0.011

Reference: the supplement of paper PMC4166925
